Experimental data from PMC12136788.
The other results are listed elsewhere or left out.

T1: UNK ZnF1-3 (human, UniProt Q9C0B0 31-174)
T1 sequence: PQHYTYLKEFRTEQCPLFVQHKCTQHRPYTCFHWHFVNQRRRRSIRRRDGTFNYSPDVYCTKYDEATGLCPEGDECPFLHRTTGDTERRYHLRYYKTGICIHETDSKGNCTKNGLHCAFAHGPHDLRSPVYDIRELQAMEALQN

B1: chr10:106027121:106027122:+_ENSG00000148834_ENST00000369713|hu_hu|motif|central (ssRNA)
RNA: GGGAGUUCUACAGUCCGACGAUCGGCCUCAGGGCUGUUCUGUAAGUAGAGCUCUAGGAAACCUUGCCAGUCUUUCUCACGGGUAAGCAGGGCUGAGACUGUGGGAUCUUCCUUCAUGGCUGCCAUCCACAGUUUCAGUUUUGGCAACAGAGGAUUGAGCAUCA
B2: chr11:97022710:97022711:-_ENSMUSG00000001440_ENSMUST00000001479|mus_mus|FALSE|FALSE (ssRNA)
RNA: GGGAGUUCUACAGUCCGACGAUCCACUUUAAAAAAUUACUAAAGCGUGCGAGCAGGGUCACCAUCUGACACCAUUUUACUAAUCUUCAACUUCAGUGGAAAAAUAGAGCCUUCUUCCUGGUGCCAUUUUCAUCACAACAGUUGCAACAGAGGAUUGAGCAUCA
B3: chr2:35971668:35971669:-_ENSMUSG00000026889_ENSMUST00000028251|mus_hu|motif|central (ssRNA)
RNA: GGGAGUUCUACAGUCCGACGAUCGAAUCAGUACAAAUAAUAAACAGUGCUUUAAAUACAAAUAAAUAGCUCUGGUUUCGGAAGGAAACAACUCUAUAUAUAAUUCUAAGUUUUUUCUAAGUUCCUAUUAAAAAUAGAAGACUACAACAGAGGAUUGAGCAUCA
B4: chr9:74904954:74904955:+_ENSMUSG00000007656_ENSMUST00000169492|mus_mus|FALSE|FALSE (ssRNA)
RNA: GGGAGUUCUACAGUCCGACGAUCUCAAAAGGAAGAUACAGAAGAAAUCAAUACAACAGAGGUCCUGUUAAAUAAGAGUAACAUACAAAGCUGUAAUCAUGAGAAAGUAAAGAAAGCCAGAGCAUUAAAGCUGUAAAACUUGCUCAACAGAGGAUUGAGCAUCA
B5: chr3:150289777:150289778:+_ENSG00000144895_ENST00000460851|hu_mus|motif|central (ssRNA)
RNA: GGGAGUUCUACAGUCCGACGAUCUUUCGCAGGCAUAAAACCAUAAACAGCGCAAAACUCAGUAGAACUGGAAUUCCAAACGGCAUCAUAAAUUGGGCCAUUUUUUGGUAAUUGUACCACAGCACUUUCUCCAUUUGUUGCAAUCAACAGAGGAUUGAGCAUCA
B6: chr13:48919227:48919228:+_ENSG00000139687_ENST00000267163|hu_hu|FALSE|FALSE (ssRNA)
RNA: GGGAGUUCUACAGUCCGACGAUCUUUGGUACUGGUAUCAAUUUCUUUUAGUAAGUUAAAGAAUUUAUGGACACUGAUUUCUAUGUUUUUCUGUAGCUCAGUAAAAGUGAACGACAUCUCAUCUAGGUCAACUGCUGCAAUAAACAACAGAGGAUUGAGCAUCA
B7: chr3:176743309:176743310:-_ENSG00000177565_ENST00000430069|hu_mus|motif|central (ssRNA)
RNA: GGGAGUUCUACAGUCCGACGAUCUGUACACAUUCAUAGUCGGUCCAUGGCUUCCAACUAGUAACGCUAUUUCCGAAGGUCGGAGACACAAACUGAACCGUCCGAAGCACUGGCUCCAACUUUGUCUCCUGCUGCGUUCCAGCACAACAGAGGAUUGAGCAUCA
B8: chr2:78758850:78758851:+_ENSMUSG00000027011_ENSMUST00000028398|mus_hu|FALSE|FALSE (ssRNA)
RNA: GGGAGUUCUACAGUCCGACGAUCGUCCAGACAGAUGACUCCCUGACUGUUGAUGUUGCAGUGAUAGAUUCUGGUGCGGAAAGUAACCUUUGGUGGCUUAAAUGGAUAAUCUGAUGAAAAUGUGAUAUCCAGAAAAAACACACCCAACAGAGGAUUGAGCAUCA
B9: chr12:39756943:39756944:-_ENSG00000139116_ENST00000544797|hu_mus|hu_hu_hu_mus_False|48_98 (ssRNA)
RNA: GGGAGUUCUACAGUCCGACGAUCGGUUUGGCUGUUACCCCCGAGGGAAUCCUGCAAGAGUCUUGUCAGCUUAGAGUCUCUGUAAGGGACAUGUGUGGCUCUCUUGCUCUUGUCCCCCAAGGCGCUGAUUACAUUCCCAAGAGCCAACAGAGGAUUGAGCAUCA
B10: chr12:39763582:39763583:-_ENSG00000139116_ENST00000544797|hu_mus|hu_hu_hu_mus_False|8_8 (ssRNA)
RNA: GGGAGUUCUACAGUCCGACGAUCCUCUAGGAACUGGGCAUUCACUUUGAAUUCAGGAGGGGGCAGCCCGUUUUUAAUCGCUGAGGUCUUUUUCUCAUCAAUACUCUUGAACAGGUGUCUAACAGCACGAGAAAUAAUGCCCUGCAACAGAGGAUUGAGCAUCA
B11: chr19:36933551:36933552:+_ENSMUSG00000024811_ENSMUST00000025729|mus_hu|FALSE|FALSE (ssRNA)
RNA: GGGAGUUCUACAGUCCGACGAUCGUGGCCUUUAAAUUCAUAUGCUAAUCUUUCUUUUAACUGUGGUGUGGGAGCCAAGUCUAUAGCACUUUUAUUGUGACAAUUGAGCAGUGUUGGGUCUGCACCAUAACUUAAGAGAAGAGACAACAGAGGAUUGAGCAUCA
B12: chr16:94651144:94651145:+_ENSMUSG00000040785_ENSMUST00000117648|mus_hu|mus_mus_mus_hu_True|8_28 (ssRNA)
RNA: GGGAGUUCUACAGUCCGACGAUCAUUUUCUUGAAUCAAGUGGCGAAUAACAUAGUCCACUGCUUCAUUUAGAAAAUUUCUGCUAGAAAAACAGGUUGUAUAGUCUUCCGUGCUCAGAACUUUCCAAGAGAGCAGCUCUUUGAGCAACAGAGGAUUGAGCAUCA
B13: chr9:122046315:122046316:+_ENSMUSG00000038145_ENSMUST00000120173|mus_mus|motif|central (ssRNA)
RNA: GGGAGUUCUACAGUCCGACGAUCAAGUUUGGUCUGGGUGUCUAUGACUUCAUAGAGACGCACAAUGUUGGGGUGCUGCACGGGUUUCAUGCACCUCACUUCCUGGAAGAGAUGACCAGUGGCUAGAGUGUCCAGCUUCGUCUUCAACAGAGGAUUGAGCAUCA
B14: chr10:123500321:123500322:-_ENSG00000107669_ENST00000369043|hu_hu|FALSE|FALSE (ssRNA)
RNA: GGGAGUUCUACAGUCCGACGAUCACGUUAAGAAACUACACACAACAAAUAUUUGCAAAAUGAAUGAAAAAUAGGAUAAAGCUAUUUAAAAGUCAACAUAGUAAUAUUUAUCUAAAUAAUUUUAAUCAAAUGUACAACAUAUUUCAACAGAGGAUUGAGCAUCA

Molecular target: T1, UNK ZnF1-3
Test: nsRBNS (natural sequence RNA bind-n-seq); RBNS binding buffer (assumed for nsRBNS): 25 mM Tris pH 7.5, 150 mM KCl, 3 mM MgCl2, 0.01% Triton X-100, 500 ug/ml BSA, 20 U/ml SUPERase-In, 4 C; UNK is unkempt and MSI1 is Musashi-1; names of the RNAs are library labels; protein concentration not given here; high values mean tight binding

Question: With B1 as the binder, how does the binding signal read?
Answer: 0.652 enrichment R

Question: How did the binding signal turn out when B2 was run?
Answer: 1.32 enrichment R

Question: For B3, which binding signal is on record?
Answer: 1.29 enrichment R

Question: B4 was tested. Which binding signal did it give?
Answer: 2.34 enrichment R

Question: B5 was tested. Which binding signal did it give?
Answer: 1.08 enrichment R

Question: With B6 as the binder, how does the binding signal read?
Answer: 0.697 enrichment R

Question: With B7 as the binder, how does the binding signal read?
Answer: 0.839 enrichment R

Question: For B8, which binding signal is on record?
Answer: 1.2 enrichment R

Question: With B9 as the binder, how does the binding signal read?
Answer: 0.618 enrichment R

Question: Which binding signal does the source give for B10 here?
Answer: 1.28 enrichment R

Question: Which binding signal does the source give for B11 here?
Answer: 2.04 enrichment R

Question: Which binding signal does the source give for B12 here?
Answer: 0.728 enrichment R

Question: With B13 as the binder, how does the binding signal read?
Answer: 0.825 enrichment R

Question: How did the binding signal turn out when B14 was run?
Answer: 0.853 enrichment R
